Read counts are not given, so values of variants with three or more changes are uncertain.
B1: LINE1-mini (parent)
chain: GGCAGAGCUCAACACAGCGUGGCAAAGUGGCUGUGGCUAGACUGCC

Variants of: B1
Assay: self-cleavage, relative activity (ratio to wild type); higher = more cleavage; in vitro, sequencing; the parent is a self-cleaving ribozyme
G2C C10A A26C A41U C42A showed a self-cleavage of 0.01.
G2U A6C C8A U9G C23U C37U C42U U43A gave a self-cleavage of 0.04.
In the case of G2C U9C U38C C42U, the self-cleavage is reported as 0.
G2C U9C G35C gave a self-cleavage of 0.04.
With G2C C18A G22U the self-cleavage was 0.08.
For G2C U28A U32G, the self-cleavage was 0.02.
In the case of G2C C15A G27A G33C G35U G44A, the self-cleavage is reported as 0.02.
For G2C G17U C18U G33A, the self-cleavage was 0.02.
Work on G2C G21A C37G yielded a self-cleavage of 0.17.
G2C C13A A16U A25G C31A C46G gave a self-cleavage of 0.13.
In the case of G2U A4G C10G G35U, the self-cleavage is reported as 0.03.
In the case of G2C C13A A16U, the self-cleavage is reported as 0.
With G2C G5A G30A G36C the self-cleavage was 0.15.
In the case of G2C G7U G29U U32A G35C G36C C45G, the self-cleavage is reported as 0.06.
G2C C10A A25U U28C G29U U43G showed a self-cleavage of 0.
G2C C31A A41U C45A showed a self-cleavage of 0.02.
With G2C C10A C23U A26G the self-cleavage was 0.03.
Variant G2C C23A C37A has a self-cleavage of 0.36.
With G2C C18U G22U G35U C37G the self-cleavage was 0.05.
G2U A4G C8A C31U C37U A41G G44A C45A C46A gave a self-cleavage of 0.02.
Work on G2C G21U G40U yielded a self-cleavage of 0.12.
G2C C31U C42G gave a self-cleavage of 0.03.
G2C G7C C8A showed a self-cleavage of 0.07.
With G2C G33A G35C C45G the self-cleavage was 0.04.
G2C G7U G17C A25U U34A gave a self-cleavage of 0.01.
G2C C15G G36C C46G gave a self-cleavage of 0.01.
For G2C G5U G7C C46U, the self-cleavage was 0.13.
With G2C C18G C31U the self-cleavage was 0.04.
Work on G2C G21A A25U G27U yielded a self-cleavage of 0.29.
G2C C8U C10A U20A showed a self-cleavage of 0.01.
Work on G2C G19A U20A yielded a self-cleavage of 0.07.
In the case of G2C G21C U28G, the self-cleavage is reported as 0.02.
G2U A4C G19U G30U G35C U43A gave a self-cleavage of 0.01.
In the case of G2U A6G A16C U32C, the self-cleavage is reported as 0.01.
G2U A6C G7U C18A A25G G35C gave a self-cleavage of 0.16.
G2U A6C C8G G19A G33U U34A showed a self-cleavage of 0.04.
G2C U9G C13U A14C C23U showed a self-cleavage of 0.07.
With G2C G17U C18A the self-cleavage was 0.07.
G2C C18U C37A gave a self-cleavage of 0.21.
With G2C G30U C37G the self-cleavage was 0.01.
In the case of G2C G19U G21U G35C C42U, the self-cleavage is reported as 0.07.
G2C U9A G29C C37A A39G showed a self-cleavage of 0.
G2U A4U C8G G21C G29U G30A showed a self-cleavage of 0.06.
In the case of G2C C13U C15A C18A A24U, the self-cleavage is reported as 0.46.
G2C C18U A24U A39C G44C gave a self-cleavage of 0.04.
G2C C10G C18U G33A C45U gave a self-cleavage of 0.01.
With G2U A6G G19C U28G C37U the self-cleavage was 0.01.
In the case of G2C G7A G17A, the self-cleavage is reported as 0.06.
In the case of G2C G22A C37G G44A C45A, the self-cleavage is reported as 0.01.
Work on G2C U9A A12G G19C G40A yielded a self-cleavage of 0.01.
With G2C U20G G30A the self-cleavage was 0.06.
G2C U20A C31A U34G A39G C42U C45A showed a self-cleavage of 0.
In the case of G2C G19U C42A, the self-cleavage is reported as 0.02.
Work on G2C C13A A14U A41C yielded a self-cleavage of 0.19.
With G2C G5U C13G G17A G22U the self-cleavage was 0.02.
For G2C C18U G29U C31U U38C G44A, the self-cleavage was 0.04.
Variant G2C G5A C18A G19C C46U has a self-cleavage of 0.06.
Work on G2C U28C G33U A39C yielded a self-cleavage of 0.
In the case of G2C G22U C37U, the self-cleavage is reported as 0.08.
Variant G2C U43C G44A has a self-cleavage of 0.06.
Work on G2C G5C A16U G22U yielded a self-cleavage of 0.04.
G2C C8U A39U showed a self-cleavage of 0.06.
For G2C G27A U38A C42G, the self-cleavage was 0.08.
G2U A4C U9G G27U U38A gave a self-cleavage of 0.03.
With G2C G21A A24C G40U C45G the self-cleavage was 0.02.
Work on G2C G21C G29U G35U yielded a self-cleavage of 0.
For G2C G19A C23G G27A, the self-cleavage was 0.45.
G2C U9G A26U C31A showed a self-cleavage of 0.04.
For G2C G7U C13A, the self-cleavage was 0.14.
In the case of G2C G5U A14G U38A, the self-cleavage is reported as 0.
In the case of G2C G17U G19U U32G, the self-cleavage is reported as 0.3.
In the case of G2C U9A U20C G35U, the self-cleavage is reported as 0.18.
With G2C G22U G33C the self-cleavage was 0.04.
G2C G17C G19C G44A C45U showed a self-cleavage of 0.3.
With G2C C10A G21U C23A U34G the self-cleavage was 0.01.
In the case of G2C G30U C46U, the self-cleavage is reported as 0.05.
G2U A4U C23U gave a self-cleavage of 0.06.
Work on G2C C15U A26U U28G C46U yielded a self-cleavage of 0.
For G2C U28A G36U A39U, the self-cleavage was 0.07.
G2C G7A G21U U32G gave a self-cleavage of 0.05.
In the case of G2C G5A A6G A25C U28C, the self-cleavage is reported as 0.04.
G2C G5U C10G U32G U34C showed a self-cleavage of 0.
With G2C C23A A26C G36A U38G the self-cleavage was 0.02.
Variant G2C U34G C42G has a self-cleavage of 0.01.
In the case of G2U A4C C13G, the self-cleavage is reported as 0.15.
For G2C U20C C23U G29C, the self-cleavage was 0.04.
With G2U A6C A14U A25C the self-cleavage was 0.01.
Work on G2C C15A U38G yielded a self-cleavage of 0.04.
Work on G2C C23U G40A U43G yielded a self-cleavage of 0.01.
For G2C U9A G33C, the self-cleavage was 0.19.
G2U A4U C8G showed a self-cleavage of 0.02.
G2C C18A G36U showed a self-cleavage of 0.02.
With G2C C23G C31G the self-cleavage was 0.06.
In the case of G2C C8U G29U, the self-cleavage is reported as 0.23.
G2C C15G A26C G33A A41U gave a self-cleavage of 0.01.
Work on G2C G35U U43G yielded a self-cleavage of 0.
With G2C G7A G17C A26U G29C the self-cleavage was 0.31.
Variant G2C C10G C15A G17C A26G has a self-cleavage of 0.01.
For G2C G7C U20G C31G G35U C46A, the self-cleavage was 0.02.
With G2C G22C C31G the self-cleavage was 0.12.
With G2C G29C C45G the self-cleavage was 0.43.
Work on G2C C13U G19U U20C yielded a self-cleavage of 0.15.
G2C C15A C18U G35C C42G showed a self-cleavage of 0.11.
In the case of G2C U20G A25C G33A C46A, the self-cleavage is reported as 0.02.
Work on G2C C10A C15G G22U C31G yielded a self-cleavage of 0.02.
For G2C U9A C13A, the self-cleavage was 0.61.
Work on G2C G21C A41C U43G yielded a self-cleavage of 0.04.
For G2C U9A A26C G40A G44A, the self-cleavage was 0.1.
G2C C15G A26C G40A C45A gave a self-cleavage of 0.01.
Work on G2C C18U G30U U38A yielded a self-cleavage of 0.01.
For G2C C15U C31G U32C U43G, the self-cleavage was 0.01.
For G2C U9C A11C C13G U28C G30U, the self-cleavage was 0.01.
G2C G5U C18A C37U showed a self-cleavage of 0.
In the case of G2U A4U A6G A14G G17A G29U G30A, the self-cleavage is reported as 0.03.
For G2C C15A G21U, the self-cleavage was 0.03.
Variant G2C C23A G30A has a self-cleavage of 0.15.
Work on G2C U38G A39G yielded a self-cleavage of 0.02.
Variant G2C U32G C45A has a self-cleavage of 0.03.
G2C G21C G29C U43A gave a self-cleavage of 0.01.
Variant G2C G33C G36C has a self-cleavage of 0.01.
For G2C U9C C15G U20G G27U, the self-cleavage was 0.07.
G2C C10U U20G G22A A24G showed a self-cleavage of 0.01.
With G2C G7A C18A U20G G35U C37U the self-cleavage was 0.05.
In the case of G2C U9A C18G G19A U20G G27A G33C, the self-cleavage is reported as 0.04.
Variant G2C C13A A14C G27U has a self-cleavage of 0.06.
With G2C C10A G22C the self-cleavage was 0.01.
For G2C U20G U32G A39U, the self-cleavage was 0.
In the case of G2C C8U C15U, the self-cleavage is reported as 0.36.
With G2C G22C G35U G44C the self-cleavage was 0.02.
In the case of G2U A6C G19U, the self-cleavage is reported as 0.02.
With G2C U9G U32G C42A the self-cleavage was 0.
Variant G2C U20G U34G has a self-cleavage of 0.01.
In the case of G2C G29A C45U, the self-cleavage is reported as 0.15.
Work on G2C U20A G36U C37A yielded a self-cleavage of 0.
G2C G30A U32C C45U showed a self-cleavage of 0.03.
G2C G29U U32C gave a self-cleavage of 0.27.
G2C G19A U34C A41C C45U showed a self-cleavage of 0.02.
With G2C C15A G19C A25G C31U G40U the self-cleavage was 0.14.
G2C G5A G22U A39G showed a self-cleavage of 0.03.
G2C C15U G29A U34A showed a self-cleavage of 0.27.
For G2C G27A G29C, the self-cleavage was 0.1.
For G2C U20A G21A C23A A26U G30A G36C G44U, the self-cleavage was 0.2.
With G2C C15G G17C U32G the self-cleavage was 0.03.
In the case of G2C G21C C23U A26U G33C C42U, the self-cleavage is reported as 0.02.
Work on G2C C10G G29C G36U yielded a self-cleavage of 0.01.
For G2C C45U C46U, the self-cleavage was 0.04.
Variant G2C C18A C37G G40C C42U C46U has a self-cleavage of 0.21.
With G2C C10A C13A C23G the self-cleavage was 0.02.
Variant G2C C10A A12G G22C has a self-cleavage of 0.
For G2C C18G G33U U38C, the self-cleavage was 0.01.
G2C C18G G33U U43G showed a self-cleavage of 0.01.
Variant G2C G5A A25G A39U C46G has a self-cleavage of 0.21.
G2U A4C C8U C37U gave a self-cleavage of 0.27.
In the case of G2C G35U A39G, the self-cleavage is reported as 0.06.
G2U A4C C13U G27A U28A G36A A39G showed a self-cleavage of 0.03.
In the case of G2C G7U U20A C45U, the self-cleavage is reported as 2.53.
Variant G2C G17C G19U has a self-cleavage of 0.27.
G2C C13G C31G G40A showed a self-cleavage of 0.03.
Work on G2U A6C C10A C37A yielded a self-cleavage of 0.
Variant G2C G7U G19U G22A G35A has a self-cleavage of 0.11.
G2C C18U G19C A39G showed a self-cleavage of 0.15.
In the case of G2C U9C A11U C13U, the self-cleavage is reported as 0.08.
Work on G2C C10A G22A C23G yielded a self-cleavage of 0.05.
Variant G2C U20G C31A A39U U43A has a self-cleavage of 0.05.
In the case of G2U A4C A6G C8G A24G, the self-cleavage is reported as 0.02.
For G2C C10A G17U, the self-cleavage was 0.03.
G2C C10G G36A A39G C42G gave a self-cleavage of 0.01.

— the RNAGym collection of RNA variant scans (doi:10.7554/elife.90254)
